The other results are listed elsewhere or left out.
B1: PhoQ; a variant is named by its letters at X, in order, P23837 (parent)
chain: MKKLLRLFFPLSLRVRFLLATAAVVLVLSLAYGMVALIGYSVSFDKTTFRLLRGESNLFYTLAKWENNKLHVELPENIDKQSPTMTLIYDENGQLLWAQRDVPWLMKMIQPDWLKSNGFHEIEADVNDTSLLLSGDHSIQQQLQEVREDDDDAEMTHSVAVNVYPATSRMPKLTIVVVDTIPVELKSSYMVWSWFIYVLSANLLLVIPLLWVAAWWSLRPIEALAKEVRELEEHNRELLNPATTRELTSLVRNLNRLLKSERERYDKYRTTLTDLTHSLKTPLXXLQXXLRSLRSEKMSVSDAEPVMLEQISRISQQIGYYLHRASMRGGTLLSRELHPVAPLLDNLTSALNKVYQRKGVNISLDISPEISFVGEQNDFVEVMGNVLDNACKYCLEFVEISARQTDEHLYIVVEDDGPGIPLSKREVIFDRGQRVDTLRPGQGVGLAVAREITEQYEGKIVAGESMLGGARMEVIFGRQHSAPKDE

Variants of: B1
Assay: enrichment ratio after two sorts for PhoP signalling (ratio (wild type AVST 3.29)); higher = more functional
Details: with PhoP (E. coli)

Row | Variant | enrichment ratio
1 | TQMI | 6.9
2 | FIWW | ≤ 0.25
3 | EYIF | ≤ 0.25
4 | DKAD | ≤ 0.25
5 | SCSW | 5.69
6 | AVLQ | 4.51
7 | IWHF | ≤ 0.25
8 | LELP | ≤ 0.25
9 | SGEF | ≤ 0.25
10 | DTHT | ≤ 0.25
11 | TLWN | ≤ 0.25
12 | YLRR | ≤ 0.25
13 | YLKL | ≤ 0.25
14 | PFND | ≤ 0.25
15 | KLDI | ≤ 0.25
16 | AAKH | ≤ 0.25
17 | HRMS | ≤ 0.25
18 | EHAG | ≤ 0.25
19 | EHMA | ≤ 0.25
20 | PCFH | ≤ 0.25
21 | RVDH | ≤ 0.25
22 | SLHY | ≤ 0.25
23 | FQFY | ≤ 0.25
24 | HCFD | ≤ 0.25

Row | Variant | enrichment ratio
25 | EELG | ≤ 0.25
26 | RKHW | ≤ 0.25
27 | KDRF | ≤ 0.25
28 | NIIG | ≤ 0.25
29 | YKIF | ≤ 0.25
30 | MYEQ | ≤ 0.25
31 | HPDP | ≤ 0.25
32 | TENL | 6.63
33 | MVRS | ≤ 0.25
34 | NAVS | ≤ 0.25
35 | INAQ | ≤ 0.25
36 | SIFA | ≤ 0.25
37 | GHQE | ≤ 0.25
38 | NSET | ≤ 0.25
39 | QTDA | ≤ 0.25
40 | PTDD | ≤ 0.25
41 | VVDH | ≤ 0.25
42 | KMKH | ≤ 0.25
43 | IGAD | ≤ 0.25
44 | HGWY | ≤ 0.25
45 | WLVW | ≤ 0.25
46 | ALYT | ≤ 0.25
47 | LNIQ | ≤ 0.25
48 | EMNW | ≤ 0.25

Row | Variant | enrichment ratio
49 | GWGI | ≤ 0.25
50 | KLVI | ≤ 0.25
51 | GGSS | 2.96
52 | QAAF | ≤ 0.25
53 | YSLK | ≤ 0.25
54 | VPVS | ≤ 0.25
55 | KNPE | ≤ 0.25
56 | KQGC | ≤ 0.25
57 | IILA | ≤ 0.25
58 | RWFL | ≤ 0.25
59 | SSIQ | 10.8
60 | TLAQ | 6.79
61 | YFCL | ≤ 0.25
62 | YKEW | ≤ 0.25
63 | EHDA | ≤ 0.25
64 | LILI | ≤ 0.25
65 | FQDE | ≤ 0.25
66 | MDPR | ≤ 0.25
67 | VKFN | ≤ 0.25
68 | PRDK | ≤ 0.25
69 | PFSC | ≤ 0.25
70 | LCVY | ≤ 0.25
71 | SQMP | ≤ 0.25
72 | RCAY | ≤ 0.25

Row | Variant | enrichment ratio
73 | DTIC | ≤ 0.25
74 | YAII | ≤ 0.25
75 | DFHD | ≤ 0.25
76 | VFDG | ≤ 0.25
77 | EHVD | ≤ 0.25
78 | LWVH | ≤ 0.25
79 | QGHV | 9.02
80 | NIKA | ≤ 0.25
81 | LDNK | ≤ 0.25
82 | KGNQ | ≤ 0.25
83 | WDHQ | ≤ 0.25
84 | YTCF | 2.21
85 | YAWK | ≤ 0.25
86 | TKQG | ≤ 0.25
87 | IRGQ | ≤ 0.25
88 | PGIS | ≤ 0.25
89 | WCEP | ≤ 0.25
90 | IHQK | ≤ 0.25
91 | DWCG | ≤ 0.25
92 | ASCL | 20.8
93 | IRQN | ≤ 0.25
94 | MSTK | ≤ 0.25
95 | VTPS | ≤ 0.25
96 | NMIE | ≤ 0.25

Row | Variant | enrichment ratio
97 | GNGG | ≤ 0.25
98 | RHGK | ≤ 0.25
99 | SKYA | ≤ 0.25
100 | PEYM | ≤ 0.25
101 | EYER | ≤ 0.25
102 | INGK | ≤ 0.25
103 | PMMS | ≤ 0.25
104 | WNEP | ≤ 0.25
105 | GITF | 18.4
106 | MRQN | ≤ 0.25
107 | MLQW | ≤ 0.25
108 | VLKK | ≤ 0.25
109 | FRVQ | ≤ 0.25
110 | RVWA | ≤ 0.25
111 | GDLM | ≤ 0.25
112 | YSSL | ≤ 0.25
113 | YTLE | 3.23
114 | MTLE | 5.86
115 | LWEL | ≤ 0.25
116 | VFVT | ≤ 0.25
117 | MAVH | ≤ 0.25
118 | YYMK | ≤ 0.25
119 | KNPR | ≤ 0.25
120 | EMML | ≤ 0.25

Row | Variant | enrichment ratio
121 | KLVW | ≤ 0.25
122 | VCRT | ≤ 0.25
123 | NNDT | ≤ 0.25
124 | HKTI | ≤ 0.25
125 | SQIE | 5.2
126 | SQDD | ≤ 0.25
127 | FHTP | ≤ 0.25
128 | GQPK | ≤ 0.25
129 | PGCW | ≤ 0.25
130 | VPAI | ≤ 0.25
131 | YFVW | ≤ 0.25
132 | GNRL | ≤ 0.25
133 | GACG | ≤ 0.25
134 | FNIW | ≤ 0.25
135 | APEG | ≤ 0.25
136 | LQGM | ≤ 0.25
137 | TAYF | 8.45
138 | WHGF | ≤ 0.25
139 | PRYH | ≤ 0.25
140 | WYCS | ≤ 0.25
141 | DLFW | ≤ 0.25
142 | LINH | ≤ 0.25
143 | QEYD | ≤ 0.25
144 | KIWC | ≤ 0.25

Row | Variant | enrichment ratio
145 | IFHS | ≤ 0.25
146 | ASCS | 4.46
147 | HMGG | ≤ 0.25
148 | AMTQ | ≤ 0.25
149 | DNRD | ≤ 0.25
150 | LSPH | ≤ 0.25
151 | HRDI | ≤ 0.25
152 | DRDY | ≤ 0.25
153 | HYTV | ≤ 0.25
154 | QCAQ | ≤ 0.25
155 | DIIT | ≤ 0.25
156 | MRFC | ≤ 0.25
157 | NWFT | ≤ 0.25
158 | ILCA | ≤ 0.25
159 | YMHM | ≤ 0.25
160 | SLEV | ≤ 0.25
161 | PIMW | ≤ 0.25
162 | TQSI | 11.7
163 | QVYF | ≤ 0.25
164 | LSLP | ≤ 0.25
165 | WKYQ | ≤ 0.25
166 | LEIS | ≤ 0.25
167 | LEVY | ≤ 0.25
168 | EVFI | ≤ 0.25

Row | Variant | enrichment ratio
169 | KMYF | ≤ 0.25
170 | SMNS | ≤ 0.25
171 | PKPA | ≤ 0.25
172 | AMRK | ≤ 0.25
173 | GMGI | ≤ 0.25
174 | HWLA | ≤ 0.25
175 | ADHH | 1.63
176 | YKKD | ≤ 0.25
177 | QEYS | 37
178 | REKG | ≤ 0.25
179 | NFTD | ≤ 0.25
180 | KIIF | ≤ 0.25
181 | WNYH | ≤ 0.25
182 | WNRE | ≤ 0.25
183 | RPWV | ≤ 0.25
184 | YCVR | ≤ 0.25
185 | YKGD | ≤ 0.25
186 | TDSD | ≤ 0.25
187 | KTCY | ≤ 0.25
188 | EVFS | ≤ 0.25
189 | QDYA | ≤ 0.25
190 | SHVT | ≤ 0.25
191 | AMLG | 7.12
192 | NNMA | 3.04

Row | Variant | enrichment ratio
193 | WIAM | ≤ 0.25
194 | YVAH | ≤ 0.25
195 | LKLP | ≤ 0.25
196 | TDWW | ≤ 0.25
197 | ERCV | ≤ 0.25
198 | PPIC | ≤ 0.25
199 | FRCW | ≤ 0.25
200 | LVRI | ≤ 0.25
201 | FESR | ≤ 0.25
202 | PMGG | ≤ 0.25
203 | CIRI | ≤ 0.25
204 | WGPY | ≤ 0.25
205 | KVSE | ≤ 0.25
206 | ENHC | ≤ 0.25
207 | TWRY | ≤ 0.25
208 | VRHL | ≤ 0.25
209 | RCKM | ≤ 0.25
210 | LHHM | ≤ 0.25
211 | VNRW | ≤ 0.25
212 | TDFG | ≤ 0.25
213 | HGAG | ≤ 0.25
214 | DHRD | ≤ 0.25
215 | HHTQ | ≤ 0.25
216 | MVAM | 39.4

Row | Variant | enrichment ratio
217 | DWDG | ≤ 0.25
218 | HTCG | ≤ 0.25
219 | TVWR | 0.26
220 | KDKC | ≤ 0.25
221 | TQTR | ≤ 0.25
222 | VIVS | ≤ 0.25
223 | YPTG | ≤ 0.25
224 | DFAA | ≤ 0.25
225 | SPGM | ≤ 0.25
226 | NLGL | ≤ 0.25
227 | FHHI | ≤ 0.25
228 | EPRK | ≤ 0.25
229 | VLVC | ≤ 0.25
230 | NCMQ | ≤ 0.25
231 | VWTC | ≤ 0.25
232 | AGIV | 14.4
233 | MEMM | 0.38
234 | AASW | ≤ 0.25
235 | ELTM | ≤ 0.25
236 | FNGF | ≤ 0.25
237 | KRWW | ≤ 0.25
238 | YTGA | ≤ 0.25
239 | IARH | ≤ 0.25
240 | IIDL | ≤ 0.25

Row | Variant | enrichment ratio
241 | GFLN | ≤ 0.25
242 | NGVE | ≤ 0.25
243 | SAYV | ≤ 0.25
244 | AKCE | ≤ 0.25
245 | MRAN | ≤ 0.25
246 | YRVY | ≤ 0.25
247 | HQPC | ≤ 0.25
248 | ESDH | ≤ 0.25
249 | RNPN | ≤ 0.25
250 | IRSK | ≤ 0.25
251 | GYVE | ≤ 0.25
252 | FGKK | ≤ 0.25
253 | VWMD | ≤ 0.25
254 | FKAG | ≤ 0.25
255 | QSEE | ≤ 0.25
256 | MWPA | ≤ 0.25
257 | DPWR | ≤ 0.25
258 | APKW | ≤ 0.25
259 | IHAP | ≤ 0.25
260 | HFFG | ≤ 0.25
261 | VALR | ≤ 0.25
262 | ESMF | ≤ 0.25
263 | EFLD | ≤ 0.25
264 | WGDW | ≤ 0.25

Row | Variant | enrichment ratio
265 | NNVS | ≤ 0.25
266 | MNYY | ≤ 0.25
267 | QSAW | ≤ 0.25
268 | THNP | ≤ 0.25
269 | HNVR | ≤ 0.25
270 | KTAI | ≤ 0.25
271 | NFFT | ≤ 0.25
272 | LCII | ≤ 0.25
273 | AQMP | ≤ 0.25
274 | FQWA | ≤ 0.25
275 | PHRA | ≤ 0.25
276 | KAHR | ≤ 0.25
277 | FCLG | 6.96
278 | LQGG | ≤ 0.25
279 | VYQE | ≤ 0.25
280 | SIRR | ≤ 0.25
281 | PMFV | ≤ 0.25
282 | MHLP | ≤ 0.25
283 | TWLD | ≤ 0.25
284 | DMYR | ≤ 0.25
285 | TIMS | 7.76
286 | GYMY | ≤ 0.25
287 | VCPI | ≤ 0.25
288 | LSWK | ≤ 0.25

Row | Variant | enrichment ratio
289 | RVGE | ≤ 0.25
290 | TNSP | ≤ 0.25
291 | DWTN | ≤ 0.25
292 | CFPF | ≤ 0.25
293 | KCSY | ≤ 0.25
294 | SRIN | ≤ 0.25
295 | HQRA | ≤ 0.25
296 | SSLP | ≤ 0.25
297 | GFTV | ≤ 0.25
298 | RNNC | ≤ 0.25
299 | VKTL | ≤ 0.25
300 | TKKN | ≤ 0.25
301 | HMPP | ≤ 0.25
302 | GELR | ≤ 0.25
303 | TQIA | ≤ 0.25
304 | YTWP | ≤ 0.25
305 | EYVD | ≤ 0.25
306 | VIAL | 0.917
